Sequences and labels used below:
T1: RBFOX1 RRM (Homo sapiens, UniProt Q9NWB1 109-208)
T1 sequence: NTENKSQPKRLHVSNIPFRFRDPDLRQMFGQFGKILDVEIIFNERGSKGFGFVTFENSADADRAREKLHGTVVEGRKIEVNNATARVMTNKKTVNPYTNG

B1: GCCGUGG (DNA:RNA)
RNA: GGGAGACCGGAAUUCAGAUUGUCCGCCGUGGUUAAAUCCCGUCGUAGCCACCA
DNA 1: CAATCTGAATTCCGGTCTCCC
DNA 2: TGGTGGCTACGACGGGATT
B2: UGUUAAG (DNA:RNA)
RNA: B1 RNA with G25U, C26G, C27U, G28U, U29A, G30A
DNA 1: CAATCTGAATTCCGGTCTCCC
DNA 2: TGGTGGCTACGACGGGATT
B3: AGACUGG (DNA:RNA)
RNA: B1 RNA with G25A, C26G, C27A, G28C
DNA 1: CAATCTGAATTCCGGTCTCCC
DNA 2: TGGTGGCTACGACGGGATT
B4: GACACGA (DNA:RNA)
RNA: B1 RNA with C26A, G28A, U29C, G31A
DNA 1: CAATCTGAATTCCGGTCTCCC
DNA 2: TGGTGGCTACGACGGGATT
B5: UACCUGC (DNA:RNA)
RNA: B1 RNA with G25U, C26A, G28C, G31C
DNA 1: CAATCTGAATTCCGGTCTCCC
DNA 2: TGGTGGCTACGACGGGATT
B6: CCUUAUG (DNA:RNA)
RNA: B1 RNA with G25C, C27U, G28U, U29A, G30U
DNA 1: CAATCTGAATTCCGGTCTCCC
DNA 2: TGGTGGCTACGACGGGATT
B7: CGAAUUU (DNA:RNA)
RNA: B1 RNA with G25C, C26G, C27A, G28A, G30U, G31U
DNA 1: CAATCTGAATTCCGGTCTCCC
DNA 2: TGGTGGCTACGACGGGATT
B8: AACGGGG (DNA:RNA)
RNA: B1 RNA with G25A, C26A, U29G
DNA 1: CAATCTGAATTCCGGTCTCCC
DNA 2: TGGTGGCTACGACGGGATT
B9: CCCUAUU (DNA:RNA)
RNA: B1 RNA with G25C, G28U, U29A, G30U, G31U
DNA 1: CAATCTGAATTCCGGTCTCCC
DNA 2: TGGTGGCTACGACGGGATT

Changes are numbered by the printed parent chain; changes in the protein carry UniProt numbers. This is one part of the list.

This assay addresses T1, RBFOX1 RRM. Description: EMSA; HiTS-Eq, 1 nM pool, 10 min; buffer printed only for the single-RNA assays: 10 mM Tris pH 7.5, 150 mM NaCl, 3.4 mM EDTA, 0.001% NP-40, 30 C. The note with it: tags: His6 N-terminal (pET28a); label: 5' 32P. The method, boiled down: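 Relative association constants, normalised to the cognate motif, were derived by comparing read counts of each RNA species with those of the control reaction. The RNA sequenced was the free fraction, separated by 8% native PAGE after a 10 min equilibration in 50 µL of 1 nM 5′-radiolabelled RNA (7 randomized nucleotides) with increasing concentrations of purified wild-type or mutant RbFox RRM.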
In general terms: In EMSA bound probe runs differently from free probe, usually more slowly.
In the case of B1, the binding signal is 0.0196 KA relative to UGCAUGU.

As for B2, the binding signal is 0.0171 KA relative to UGCAUGU.

On to B3, for which the binding signal is 0.0174 KA relative to UGCAUGU.

Regarding B4, the binding signal is 0.0108 KA relative to UGCAUGU.

As for B5, the binding signal is 0.0124 KA relative to UGCAUGU.

With B6, the binding signal was 0.0104 KA relative to UGCAUGU.

Turning to B7, the binding signal is 0.00889 KA relative to UGCAUGU.

For the molecule B8, the binding signal is 0.00941 KA relative to UGCAUGU.

Regarding B9, the binding signal was 0.00299 KA relative to UGCAUGU.
